According to PMC4336329 (PLoS ONE, 2015):
The whole screen tested about 310,000 compounds, of which about 2,200 (0.71%) showed an effect of 50% or more. Effects have a minus sign here. The list shows a part of the results.

target: human ether-à-go-go-related gene (hERG) potassium channel (human, UniProt Q12809); assay: primary screen, population patch clamp on CHO cells stably expressing hERG
Sequence (Q12809 whole entry, looked up): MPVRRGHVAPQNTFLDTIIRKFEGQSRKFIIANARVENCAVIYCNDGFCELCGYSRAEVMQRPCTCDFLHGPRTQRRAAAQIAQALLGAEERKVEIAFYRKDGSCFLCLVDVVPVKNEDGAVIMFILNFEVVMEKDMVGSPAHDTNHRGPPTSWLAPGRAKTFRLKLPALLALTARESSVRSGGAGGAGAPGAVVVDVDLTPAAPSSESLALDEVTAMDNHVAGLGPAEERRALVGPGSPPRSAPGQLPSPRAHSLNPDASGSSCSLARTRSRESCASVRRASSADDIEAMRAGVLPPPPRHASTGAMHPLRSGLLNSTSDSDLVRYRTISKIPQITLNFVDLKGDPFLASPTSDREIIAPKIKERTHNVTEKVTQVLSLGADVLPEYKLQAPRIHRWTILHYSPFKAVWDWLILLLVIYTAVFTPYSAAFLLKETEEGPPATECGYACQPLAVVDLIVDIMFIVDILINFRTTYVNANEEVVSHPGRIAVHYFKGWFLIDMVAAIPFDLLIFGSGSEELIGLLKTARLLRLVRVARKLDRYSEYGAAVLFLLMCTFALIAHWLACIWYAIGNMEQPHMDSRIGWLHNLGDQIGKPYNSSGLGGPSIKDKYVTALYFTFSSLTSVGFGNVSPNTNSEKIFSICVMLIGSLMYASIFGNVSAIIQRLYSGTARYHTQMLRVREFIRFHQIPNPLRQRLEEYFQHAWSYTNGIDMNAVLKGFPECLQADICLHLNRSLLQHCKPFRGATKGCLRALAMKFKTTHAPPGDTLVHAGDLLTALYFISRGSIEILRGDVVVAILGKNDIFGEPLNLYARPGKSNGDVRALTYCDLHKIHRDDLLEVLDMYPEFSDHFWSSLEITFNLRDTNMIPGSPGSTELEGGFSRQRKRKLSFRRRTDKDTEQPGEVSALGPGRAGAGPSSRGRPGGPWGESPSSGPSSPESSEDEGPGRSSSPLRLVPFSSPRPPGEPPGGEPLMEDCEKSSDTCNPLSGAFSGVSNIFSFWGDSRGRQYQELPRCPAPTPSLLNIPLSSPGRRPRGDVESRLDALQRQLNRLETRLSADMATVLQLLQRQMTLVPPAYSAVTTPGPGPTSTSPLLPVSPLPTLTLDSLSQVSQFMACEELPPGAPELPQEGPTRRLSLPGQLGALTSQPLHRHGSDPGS

SMILES	hERG current change (%, negative = inhibition) at 1uM
OCCOCCn1c(C(CO)Nc2nc(-c3ccccc3Br)cs2)nc2ccccc21 (centres unmarked)	-9.6%
O=C(NC1CCOCC1)C1CCC(=O)N(Cc2cccc(C(F)(F)F)c2)C1 (centres unmarked)	11%
O=C1CC(Cc2ccccc2)C(=O)N1c1ncccn1 (centres unmarked)	10.7%
O=C(CSc1ccccc1)Nc1cccc(S(=O)(=O)N2CCCCC2)c1	2.28%
CC(NC(=O)COC(=O)c1ccco1)c1ccccc1 (centres unmarked)	0.122%
Cc1cccc(/C=C/C(=O)c2ccc(N3CCOCC3)cc2)c1	13.6%
COc1ccccc1NC(=O)C1CCCN(S(=O)(=O)c2cccc3nsnc23)C1 (centres unmarked)	9.23%
CC(=O)c1ccc(N/C=C\C(=O)c2ccc(C)cc2)cc1	15.7%
Cc1cc(C)nc(Nc2nc3ccccc3o2)n1	0.768%
O=C(CC1C(=O)NCCN1Cc1ccccc1)NCCC1=CCCCC1 (centres unmarked)	15.5%
Cc1ccc(-n2ncc3c(=O)[nH]c(SCC(=O)N4CCCC4)nc32)cc1C	12.9%
CC1CCCCN1C(=O)C1CC(c2ccc(F)cc2)=NO1 (centres unmarked)	-4.43%
CC1(C)CC(N(Cc2ccccc2)C(=O)Cc2ccccc2)CCO1 (centres unmarked)	8.38%
CCOC(=O)N1CCN(C(=O)c2ccc(CS(=O)c3ccccc3)o2)CC1 (centres unmarked)	12%
CC(C)CCNCC1OCc2ccccc2CO1.Cl	6.42%
Cc1ccc(OC(C)C(=O)N/N=C/c2ccccn2)cc1 (centres unmarked)	18%
CCOc1ccc(NC(=O)CN2CCN(CC(=O)Nc3ccc(F)cc3)CC2)cc1	-87.3%
CCN(CC)CCNC(=O)COc1ccc(OC)cc1	8.68%
O=C(/C=C(\c1ccc(Cl)cc1)n1cncn1)c1ccc(Cl)cc1	5.05%
CC(=O)c1ccc2c(c1)C1C(Cl)C(Sc3ccccc3[N+](=O)[O-])CC1C(C(=O)O)N2 (centres unmarked)	0.852%
COc1ccc(-c2cc(C(=O)N/N=C/c3cccnc3)c3ccccc3n2)c(OC)c1	14.3%
CCOC(=O)c1ccc(NC2OC(=O)c3ccccc32)cc1 (centres unmarked)	6.93%

SMILES	hERG current change (%, negative = inhibition) at 1uM
O=C(COC(=O)c1cccc(F)c1)NC1CC1	6.21%
O=C(Cc1cccs1)NCc1cccnc1	13.5%
O=C(COC(=O)CC1CCCC1)Nc1ccc(Cl)cn1	6.46%
COc1ccc(/C=C/C(=O)c2ccc(OC)cc2OC)c(OC)c1	13.8%
CCCCCC(=O)N[C@@H](c1ccccc1)[C@@H](O)C(=O)O[C@H]1C[C@@]2(O)[C@@H](OC(=O)c3ccccc3)C3[C@](C)(C(=O)[C@H](O)C(=C1C)C2(C)C)[C@@H](OC1OCC(O)C(O)C1O)C[C@H]1OC[C@@]31OC(C)=O (some centres unmarked)	12.5%
CS(=O)(=O)N(CC(=O)NCc1ccncc1)c1ccc(F)c(Cl)c1	9.53%
COc1ccc(N/C=C/C(=O)c2ccccc2)cc1	11%
CC(O)CNc1nc2c(c(=O)n(C)c(=O)n2C)n1C/C=C/c1ccccc1 (centres unmarked)	8.04%
COc1ccccc1NC(=O)C(C)N(C)CCOc1ccccc1 (centres unmarked)	13.2%
Cn1cccc1CNC(=O)Nc1ccc(Cl)c(Cl)c1	9.41%
Cc1ccc(C(=O)N/N=C2\CCSC2)cc1[N+](=O)[O-]	1.94%
CCO[C@H]1OC(C(=O)O)=C[C@@H](c2ccc(C(F)(F)F)cc2)[C@@H]1CCCO	17.2%
CC(=O)Nc1nc(CC(C)C)cc(-c2ccco2)c1C#N	4.98%
Oc1ccc(/C=N/Nc2nc(N3CCCCCC3)nc(N3CCCCCC3)n2)c(O)c1	5.13%
COc1cc(OC)cc(C2=NCCN2)c1.Cl	7.84%
O=C(Nc1ccc2c(c1)C(=O)NC2=O)c1cc(Cl)ccc1Cl	19.4%
COc1cccc(OCCCCN2CCCCC2)c1	-2.89%
O=C(CCN1C(=O)C2C3C=CC(C3)C2C1=O)Nc1c(F)cccc1F (centres unmarked)	2.23%
O=S(=O)(c1ccccc1)N(Cc1nc(-c2ccccc2)no1)C1CCCCC1	12.4%
O=C1NC(=O)C(=Cc2ccc(N3CCOCC3)cc2)C(=O)N1	13.8%
O=C(Cc1cccc2ccccc12)N/N=C/c1ccc(F)cc1	10.9%
Cc1c(OCC(=O)NCCCN2CCCC2=O)ccc2c3c(c(=O)oc12)CCC3	6.73%
